Reference: PubChem BioAssay AID463254 (National Center for Advancing Translational Sciences (NCATS), 2010)
In all, about 330,000 compounds went through this assay and about 40 (0.01%) were called active. Inconclusive means that the source gave no clear call. Such entries were picked first, then a sample of the others. Calls come from the whole dose curve; as a rule, active = well fitted inhibition curve with a large enough effect; inconclusive = small, poorly fitted or top-dose-only effect, or effect the other way; inactive = flat fitted curve, though single readings scatter. Potencies of inconclusive entries are doubtful fits and often do not repeat.

molecular target: Ubiquitin carboxyl-terminal hydrolase 2 (Homo sapiens) (UniProt O75604); assay: qHTS Assay for Inhibitors of Ubiquitin-specific Protease USP2a Using CHOP2 as the Reporter; conditions: USP2 core, Ub-CHOP2 coupled fluorogenic reporter, 485/531; series mostly up to 38.3 µM
Chain of UniProt O75604 (O75604 whole entry, looked up): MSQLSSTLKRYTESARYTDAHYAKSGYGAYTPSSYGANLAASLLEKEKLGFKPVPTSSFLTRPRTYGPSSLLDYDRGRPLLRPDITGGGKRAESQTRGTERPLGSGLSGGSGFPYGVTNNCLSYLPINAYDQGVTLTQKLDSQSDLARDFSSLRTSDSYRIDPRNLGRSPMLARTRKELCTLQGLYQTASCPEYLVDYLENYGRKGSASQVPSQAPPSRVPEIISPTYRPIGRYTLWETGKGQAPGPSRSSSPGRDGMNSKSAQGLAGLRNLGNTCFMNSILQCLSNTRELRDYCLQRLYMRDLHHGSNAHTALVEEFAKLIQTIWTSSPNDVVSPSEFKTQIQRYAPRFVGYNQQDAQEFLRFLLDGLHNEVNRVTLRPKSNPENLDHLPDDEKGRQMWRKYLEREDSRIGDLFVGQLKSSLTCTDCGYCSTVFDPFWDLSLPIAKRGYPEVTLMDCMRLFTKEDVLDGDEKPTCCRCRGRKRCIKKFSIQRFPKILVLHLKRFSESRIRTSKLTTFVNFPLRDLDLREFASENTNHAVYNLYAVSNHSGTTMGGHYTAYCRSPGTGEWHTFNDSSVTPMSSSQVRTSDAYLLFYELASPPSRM
In short: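 USP2 core (10nM final) preincubated 30min RT with compound in 20mM Tris-HCl pH 8.0, 2mM CaCl2, 2mM beta-mercaptoethanol, 0.05% CHAPS; 25nM Ub-CHOP2 plus 25nM reporter substrate added, fluorescence (Ex485/Em531) read after 60min.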
Potency is the fitted concentration of half-maximal effect; tags give direction and shape of the fitted curve or compound fluorescence and quenching.

Potency, inconclusive:
Cc1ccc(Nc2cc(C)nc(NCc3ccccc3)n2)cc1 28.2 µM [falling, single point]
O=[N+]([O-])c1cc(-c2ccc(/C=N\n3cnnc3)o2)cc([N+](=O)[O-])c1 22.4 µM [falling, single point]
CC1CCN(CC(O)COc2cccc(F)c2)CC1 (stereo unspecified) 5.01 µM [falling, single point]
CC(C)c1ccc2c(c1)c(SC(C)(C)C)c(CC(C)(C)C(=O)O)n2Cc1ccc(Cl)cc1 28.2 µM [falling, single point]
Cc1sc2nc(CN3CCN(c4ccc(O)cc4)CC3)[nH]c(=O)c2c1C 3.55 µM [falling, single point]
O=c1cc(C(F)(F)F)nc(-n2[nH]c3c(c2=O)CCCC3)[nH]1 12.6 µM [fluorescent, partial curve]
O=C(Nc1cccc(C(F)(F)F)c1)/C(=C\c1ccco1)NC(=O)c1cccs1 22.4 µM [falling, single point]
C=CCOc1cccc(C2C(C(=O)c3ccco3)=C(O)C(=O)N2CCN(CC)CC)c1 (stereo unspecified) 28.2 µM [falling, single point]
COc1ccc2[nH]c(=O)c(CN(Cc3ccco3)Cc3nnnn3Cc3ccccc3)cc2c1 12.6 µM [falling, single point]
CNc1ccc2c3c(cccc13)C(=O)N(C)C2=O 10 µM [fluorescent, partial curve]
COC(=O)c1nnn(-c2nonc2N)c1CSc1ccccn1 20 µM [falling, single point]
CCOC(=O)c1sc(C)c(C(N)=O)c1NC1=NCCCCC1 5.01 µM [fluorescent, single point]
COC(=O)CCC(=O)Nc1sc2c(c1C#N)CCCC2 28.2 µM [falling, single point]
C[n+]1ccc(/C=C/c2c[nH]c3ccccc23)cc1 10 µM [fluorescent, partial curve]
N#CC(C#N)=C1C=C2C=C(N3CCCCCC3)CCC2CC1 (stereo unspecified) 11.2 µM [fluorescent, partial curve]
CCOC(=O)N1CCN(C(=O)c2cc3c(ccc4ccccc43)oc2=O)CC1 22.4 µM [falling, single point]
COc1ccc2[nH]c(=O)c(CN(C3CCCCC3)C(c3nnnn3Cc3ccco3)C(C)C)cc2c1 (stereo unspecified) 11.2 µM [falling, single point]
CCOC(=O)c1ccc(NC(=O)C2=C(C)Nc3nc(CCCO)nn3C2c2cccc(C)c2)cc1 (stereo unspecified) 28.2 µM [falling, single point]
C#CCOCCOCCOCCNc1nc(N2CCN(C(=O)CCCCCCCCCCNC(=O)[C@H]([C@@H](C)CC)n3cc(CCCCCN)nn3)CC2)nc(N2CCN(C(=O)CCCCCCCCCCNC(=O)[C@H]([C@@H](C)CC)n3cc(CCCCN=C(N)N)nn3)CC2)n1 11.2 µM [falling, single point]
O=C(N/C(=C/c1cccnc1)C(=O)N1CCOCC1)c1ccco1 3.98 µM [falling, single point]
CN(C)C=Nc1ncc2c3ccccc3n(CCN(C)C)c2c1C#N 28.2 µM [falling, single point]
COc1ccc2oc(/C=C/N(C)C)c(C(=O)c3ccc(Cl)cc3)c2c1 28.2 µM [falling, single point]
Cc1cc(N2CCOCC2)nc(SCC(=O)c2ccc(Cl)cc2)n1 28.2 µM [falling, single point]
O=C(NC1CCCCC1)C(c1ccco1)N(Cc1cccs1)C(=O)Cn1nnc2ccccc21 (stereo unspecified) 25.1 µM [falling, single point]
C=CCn1c(N)c(C(=O)NCc2cccnc2)sc1=S 3.55 µM [falling, single point]
Cc1cc(NC(=O)CN2C(=O)NC3(CCCCC3C)C2=O)no1 (stereo unspecified) 25.1 µM [falling, single point]
OCC[n+]1ccc(/C=C/c2c[nH]c3ccccc23)cc1 11.2 µM [fluorescent, partial curve]
CCCn1nnc(NC(=O)c2cccc(OCC(C)C)c2)n1 5.01 µM [falling, single point]
N#Cc1c(Nc2ccc(Cl)cc2)s[nH]c1=O 5.01 µM [falling, single point]
CCCCCCNC(=O)C(C#N)c1nc2ccccc2nc1N1CCCC1 (stereo unspecified) 14.1 µM [fluorescent, single point]
Cc1ccc(/C(O)=C/C(=O)C(=O)NNC(=O)C(O)(c2ccccc2)c2ccccc2)cc1 12.6 µM [falling, single point]
CCC(C)(C)n1nnnc1C(c1ccc(C)cc1)N1CCCC1 (stereo unspecified) 5.01 µM [falling, single point]
O=C(Cc1ccccc1)Nc1cccc(N2CCCC2)c1 12.6 µM [falling, single point]
COc1ccc(C2=CC(c3ccco3)n3ncnc3N2)cc1 (stereo unspecified) 12.6 µM [fluorescent, single point]
Nc1ccc2c3c(cccc13)C(=O)N(c1ccccc1)C2=O 3.16 µM [fluorescent, full curve]
Nc1cc(N)nc(SCC(=O)N2CCCCC2)n1 22.4 µM [falling, single point]
CCCCCNC(=O)C(C#N)c1nc2ccccc2nc1N1CCCC1 (stereo unspecified) 6.31 µM [fluorescent, partial curve]
c1coc(CNc2nc(-c3cccs3)cs2)c1 28.2 µM [falling, single point]
CCN1C(=O)CSc2ccc(C(=O)NC3CCCCC3)cc21 5.01 µM [falling, single point]
N#Cc1c(-c2ccc(Cl)cc2)c(C#N)c(=O)n(N)c1N 12.6 µM [fluorescent, single point]
CCn1c(CN2CCOCC2)nnc1SCC(=O)Nc1ccc(C(C)=O)cc1 28.2 µM [falling, single point]
Cc1ccc(N2CCN(C(=O)CCc3nc4ccccc4[nH]3)CC2)c(C)c1 5.01 µM [falling, single point]
O=C1/C(=C/c2ccc(O)cc2)SC(=S)N1CC1CCCO1 (stereo unspecified) 15.8 µM [fluorescent, single point]
CCOc1ccc2nc(NC(=O)CSc3nc4c(c(=O)n(C)c(=O)n4C)n3CC)sc2c1 28.2 µM [falling, single point]
Cc1ccc[n+](-c2nc([O-])sc2C=O)c1 11.2 µM [fluorescent, partial curve]
COc1ccc(-c2csc(Nc3ccc(S(=O)(=O)Nc4cc(OC)nc(OC)n4)cc3)n2)cc1 5.01 µM [falling, single point]
C[n+]1ccc(/C=C/c2c[nH]c3ccc(F)cc23)cc1 12.6 µM [fluorescent, single point]

Potency, inactive:
COc1ccc(OCC(=O)N/N=C\c2ccco2)cc1
Cc1ccccc1OCC(=O)OCC(=O)c1ccc(OC(=O)c2ccccc2)cc1
CC1(C)Cc2c(C#N)c(NCC3CCCO3)nc(-c3ccco3)c2CO1 (stereo unspecified)
COc1ccc(C(=S)N2CCOCC2)cc1OC(=O)c1cc(OC)c(OC)c(OC)c1
CN(Cc1ccccc1)C(=O)COC(=O)/C=C/c1ccco1
Cc1ccc(-n2ncc(C(=O)Nc3ccc(Cl)cc3)c2C2CCNCC2)cc1C
CC1CCN(c2ccc(-c3cccs3)nn2)CC1
CCc1ccc2oc(-c3ccc(OC)cc3)cc(=Nc3cccc(C(=O)O)c3)c2c1
O=C(/C=C/Nc1ccc(S(=O)(=O)Nc2cnc3ccccc3n2)cc1)c1ccccc1
CC(=O)N1CCc2[nH]c3ccccc3c2C1
Oc1c(CN2CCOCC2)cc(COCc2ccccc2)c2cccnc12
CNC(=O)C1(CC(C)C)C=CCN1C(C)=O (stereo unspecified)
Cc1noc2c1C(c1ccc(N(C)C)cc1)C1=C(CC(C)(C)CC1=O)N2 (stereo unspecified)
CCC(C)n1c(-c2ccco2)nc2nc3ccccc3nc21 (stereo unspecified)
CCCCC1=CC2=CC(=O)C(C)(OC(=O)CC)C(=O)C2=CN1Cc1ccc(OC)cc1 (stereo unspecified)
Cc1ccc(CN2CC(C(=O)N3CCN(c4ccccc4O)CC3)CC2=O)cc1 (stereo unspecified)
O=[N+]([O-])c1cccc(-c2csc(Nc3ccccc3)n2)c1
Cc1nnc(NC(=O)C2CC(=O)N(c3ccc4c(c3)OCCO4)C2)s1 (stereo unspecified)
O=C(/C=C/c1cccs1)Nc1scc(-c2ccccc2)c1C(=O)O
COC(=O)c1ccccc1NC(=O)C(C)Oc1ccccc1 (stereo unspecified)
Cc1ccc(C(=O)c2ccc([N+](=O)[O-])cc2)cc1
c1ccc(C[C@H]2CN=C(Nc3ccccc3)N2CCC2CCCC2)cc1
CCc1ccc(Nc2n[n+](-c3ccccc3)c(-c3ccc(N(CC)CC)cc3)s2)cc1
Cc1ccc2nc(-c3ccc(NC(=O)C(C)N4C(=O)c5ccccc5C4=O)cc3)sc2c1 (stereo unspecified)
